# Data as given in PubChem BioAssay AID485360 (National Center for Advancing Translational Sciences (NCATS), 2010).
# Hit rate of the full screen: of about 230,000 compounds, about 1,500 (0.65%) were called active. The shares of active, inactive and inconclusive entries below differ from those in the screen. The call rests on the fitted dose curve; in most records, active means well fitted inhibition curve with a large enough effect; inconclusive means small, poorly fitted or top-dose-only effect; inactive means no such curve, though single readings can be large or run the other way. Where the call is inconclusive, the potency comes from a doubtful curve fit.
# Target: Lethal(3)malignant brain tumor-like protein 1 (Homo sapiens) (UniProt Q9Y468)
# UniProt Q9Y468, sequence (Q9Y468 whole entry, looked up): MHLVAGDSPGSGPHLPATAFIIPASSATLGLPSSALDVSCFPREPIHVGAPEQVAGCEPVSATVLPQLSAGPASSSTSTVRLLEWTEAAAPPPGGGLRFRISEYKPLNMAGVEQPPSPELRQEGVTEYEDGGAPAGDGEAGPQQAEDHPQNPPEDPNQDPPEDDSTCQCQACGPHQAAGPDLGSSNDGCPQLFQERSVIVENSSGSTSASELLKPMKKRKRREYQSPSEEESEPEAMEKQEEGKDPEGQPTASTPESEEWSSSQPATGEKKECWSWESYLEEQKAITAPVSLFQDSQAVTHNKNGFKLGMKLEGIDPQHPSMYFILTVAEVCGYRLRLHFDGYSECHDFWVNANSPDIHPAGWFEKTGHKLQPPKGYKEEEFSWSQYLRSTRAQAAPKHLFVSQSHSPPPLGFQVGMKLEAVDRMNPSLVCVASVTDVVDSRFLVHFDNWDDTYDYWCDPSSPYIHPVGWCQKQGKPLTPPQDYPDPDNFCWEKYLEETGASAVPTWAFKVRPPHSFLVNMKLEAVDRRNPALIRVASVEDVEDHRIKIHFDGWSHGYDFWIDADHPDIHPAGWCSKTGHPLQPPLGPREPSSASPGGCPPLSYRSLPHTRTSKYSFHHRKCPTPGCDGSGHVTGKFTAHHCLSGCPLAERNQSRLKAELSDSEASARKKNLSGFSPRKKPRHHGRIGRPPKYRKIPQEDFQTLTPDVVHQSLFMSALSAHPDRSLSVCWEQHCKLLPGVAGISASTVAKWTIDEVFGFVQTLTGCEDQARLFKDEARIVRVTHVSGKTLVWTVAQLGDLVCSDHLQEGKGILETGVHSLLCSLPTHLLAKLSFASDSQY
# Experiment: qHTS Assay for the Inhibitors of L3MBTL1; further: nearly all actives have a fitted effect of over 60% in size
# Conditions: AlphaScreen L3MBTL1–H3K9me1 peptide binding; activity, negative = inhibition: at 57.1 µM (top of the series)
# Outline: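 L3MBTL1 (50 nM) pre-complexed 30 min with biotinylated H3(1-15)K9me1 peptide (75 nM), then compounds added for 30 min at room temperature; AlphaScreen streptavidin donor/nickel chelate acceptor beads (10 ug/mL final) read after 30 min dark incubation.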
# On the % scale 0 is the no-effect control and ±100 the full control effect; potency means the concentration at half of the fitted maximal effect; tags describe the fitted curve by direction and shape.
SMILES,Potency,"activity, negative = inhibition"
Cc1ccc(/C=C/C(=O)Nc2ncc(C)s2)o1,"inconclusive: 28.2 µM [inhibitor, single point]",
N#Cc1c(/N=C/c2ccco2)sc2c1CCCCC2,inactive,
COc1cc(C(=O)Nc2nnc(-c3sccc3C)s2)cc(OC)c1OC,inactive,
CSCCC(NC(=O)c1ccco1)C(=O)NC1CCCCCC1 (configuration not stated),"inconclusive: 39.8 µM [inhibitor, single point]",
N#CNC(=Nc1cccc(F)c1)SCc1ccccc1F,inactive,
Clc1ccc2nc(CSCc3ccccc3)cn2c1,inactive,
CN(C)[C@@H]1C(=O)C(C(=O)NCN2CCCC2)=C(O)[C@@]2(O)C(=O)C3=C(O)c4c(O)cccc4[C@@](C)(O)C3CC12 (some centres not stated),,inconclusive: -97.5% [inhibitor]
COc1cc2nc(/C=C/c3ccc(N(C)C)cc3)sc2cc1SC,"inconclusive: 15.8 µM [inhibitor, partial curve]",
CC(c1n[nH]c(=S)n1-c1ccc(F)cc1)N1CCCCC1 (configuration not stated),"inconclusive: 39.8 µM [inhibitor, single point]",
O=C(O)c1cccc(N2C(=O)C3CC=CCC3C2=O)c1 (configuration not stated),"inconclusive: 7.08 µM [inhibitor, single point]",
O=C1NC(=O)/C(=C/c2ccccc2Oc2ccc(Cl)cc2)S1,inactive,
Cc1cc(C)c(O)c(C2(O)C(=O)c3ccccc3C2=O)c1,"inconclusive: 8.91 µM [inhibitor, partial curve]",
CCCCn1c(SCC(=O)N2CCC(C)CC2)nc2ccsc2c1=O,inactive,
Cc1[nH]c2ccccc2c1C(C#N)(C#N)C1C(=O)c2ccccc2C1=O,"inconclusive: 10 µM [inhibitor, partial curve]",
O=C(NCc1ccc(Cl)c(Cl)c1)c1ccco1,inactive,
Clc1ccccc1/C=N/c1cc(-c2ccccc2)nn1-c1ccccc1,inactive,
N/C(=N\OC(=O)c1ccc([N+](=O)[O-])cc1)c1ccccn1,"inconclusive: 0.126 µM [inhibitor, full curve, poor fit]",
CCC(C)(C)NC(=O)CN(Cc1ccc2c(c1)OCO2)C(=O)CCC(=O)Nc1ccccn1,"inconclusive: 31.6 µM [inhibitor, partial curve]",
CCCCN(C(=O)c1cccc(-n2cccc2)c1)c1c(N)n(Cc2ccccc2)c(=O)[nH]c1=O,active: 20 µM,
Nc1cc(=O)[nH]c(SCC(=O)Nc2ccc3c(c2)CCC3)n1,inactive,
COC(=O)COc1cc(C)cc2oc(=O)c(CC(=O)OC)c(C)c12,inactive,
COc1cccc(/C=N/NC(=O)C(=O)NCc2ccco2)c1O,"inconclusive: 17.8 µM [inhibitor, partial curve]",
COc1ccccc1NC(=O)COC(=O)c1cc2c(s1)CCC2,"inconclusive: 35.5 µM [inhibitor, single point]",
CC(=O)Oc1c(Sc2ccccc2[N+](=O)[O-])c(C)nn1C(C)(C)C,"inconclusive: 3.98 µM [inhibitor, partial curve]",

SMILES,Potency,"activity, negative = inhibition"
Cc1csc(=O)n1CCC(=O)OCC(=O)NNC(=O)c1ccccc1,inactive,
O=C(COc1ccc(-c2nnco2)cc1)Nc1ccc(F)c(Cl)c1,inactive,
COC(=O)c1ccccc1NC(=O)CSc1nc2ccccc2c(=O)[nH]1,"inconclusive: 3.55 µM [inhibitor, single point]",
CCOC(=O)c1c(/N=C/c2cccc(C)c2O)sc2c1CCN(C)C2,"inconclusive: 25.1 µM [inhibitor, partial curve]",
NNC(=O)/C=C/c1ccc(Cl)cc1Cl,"inconclusive: 10 µM [inhibitor, partial curve, poor fit]",
COCCN(C(=O)COC(=O)c1ccc(Cl)s1)c1c(N)n(Cc2ccccc2)c(=O)[nH]c1=O,inactive,
COc1cc(CNc2ccc(CNc3ncn[nH]3)cc2)ccc1OCc1ccccc1,"inconclusive: 17.8 µM [inhibitor, partial curve]",
CCOc1ccc(NC(=O)CSc2nnc(-c3ccccn3)n2N)cc1,"inconclusive: 28.2 µM [inhibitor, single point]",
O=Nc1c(-c2ccccc2)cc2ccccn12,"inconclusive: 31.6 µM [inhibitor, single point]",
CC(/C=N/NC(=O)c1ccncc1)=C\c1ccc(C(C)C)cc1,"inconclusive: 7.08 µM [inhibitor, single point]",
Cc1ccc(C(=O)Nc2nnc(CC(=O)N/N=C/c3ccncc3)s2)cc1,"inconclusive: 20 µM [inhibitor, single point]",
CC(=O)Nc1ccc(NC2=C(Cl)C(=O)c3ccccc3C2=O)cc1,"inconclusive: 8.91 µM [inhibitor, partial curve]",
COC(=O)c1c(NC(=O)CSc2ncn[nH]2)sc(C)c1C,inactive,
NC(=O)c1cc(NC(=O)c2cc(Br)c(Br)s2)cc(C(N)=O)c1,"inconclusive: 44.7 µM [inhibitor, partial curve, poor fit]",
CCOc1cc(C(=O)OCC(=O)NCc2ccco2)cc(OCC)c1OCC,"inconclusive: 31.6 µM [inhibitor, single point]",
CN1CCN(CCC(=O)Nc2ccc3c(c2)OCO3)CC1,"inconclusive: 10 µM [inhibitor, partial curve, poor fit]",
CC(=O)N1CCN(C2=NC(=O)C(=C3CCCCC3)S2)CC1,"inconclusive: 6.31 µM [inhibitor, single point]",
O=C(NCc1ccco1)/C(=C/c1ccco1)NC(=O)c1ccc(Br)o1,"inconclusive: 25.1 µM [inhibitor, single point]",
COn1c(-c2ccc(Cl)cc2Cl)nc2ncccc21,"inconclusive: 1 µM [inhibitor, full curve, poor fit]",
CN(C)/C=C/C=C1C(=O)CCCC1=O,active: 28.2 µM,
C=C1C(=O)[C@@]23[C@H](O)C[C@@H]4C(C)(C)CC[C@H](O)[C@@]4(C)[C@@H]2CC[C@@H]1[C@H]3O,inactive,
COc1ccc(OC)c(-c2c3cc(O)c(=O)cc-3oc3cc(O)c(O)cc23)c1,active: 0.794 µM,
O=C(O)c1cc(-c2ccc(/C=N/NC(=S)Nc3ccccc3)o2)ccc1Cl,"inconclusive: 31.6 µM [inhibitor, single point]",
COc1ccc(Br)cc1CNc1ccc(O)cc1,"inconclusive: 22.4 µM [inhibitor, single point]",

SMILES,Potency,"activity, negative = inhibition"
CC(=C/c1ccccc1)/C=N/n1c(-c2ccncc2)n[nH]c1=S,,inactive: -2.6% [at 11.4 µM]
O=Cc1ccc(OCc2nnsc2Cl)cc1,"inconclusive: 22.4 µM [inhibitor, partial curve]",
CNC(=O)Cn1c(C)cc(=O)c2cccc(C)c21,"inconclusive: 4.47 µM [inhibitor, single point]",
O=C(Nc1nncs1)c1cc2c(s1)CCC2,inactive,
Cc1ccccc1C(=O)Nc1sc2c(c1C(=O)O)CCC2,inactive,
C=CCN1C(=Nc2cccnc2)SCC1(O)c1ccc(C)cc1 (configuration not stated),"inconclusive: 12.6 µM [inhibitor, partial curve]",
FC(F)Sc1nc(-c2ccccc2)c(-c2ccccc2)n1C(F)F,"inconclusive: 15.8 µM [inhibitor, partial curve]",
N#Cc1cccc(OC(=O)c2ccc3c(=O)n4c(nc3c2)CCC4)c1,"inconclusive: 35.5 µM [inhibitor, single point]",
O=C(COC(=O)C1CC1)Nc1ncc(Cl)cc1Cl,"inconclusive: 28.2 µM [inhibitor, single point]",
Fc1ccc(-[n+]2nc(Nc3ccccc3)sc2-c2c3ccccc3cc3ccccc23)cc1,"inconclusive: 39.8 µM [inhibitor, single point]",
COc1cc(OC)c(/C=N/NC(=O)c2ccc(NC(C)=O)cc2)cc1Br,inactive,
COc1cc(/C=N/NC(=S)NC2CC3CCC2C3)ccc1O (configuration not stated),"inconclusive: 31.6 µM [inhibitor, single point]",
CC(=O)OCC1=C(C(=O)O)N2C(=O)C(NC(=O)c3ccc(COc4cccc(Cl)c4Cl)o3)C2SC1 (configuration not stated),"inconclusive: 25.1 µM [inhibitor, single point]",
O=C(Nc1nnc(-c2ccc(Cl)cc2)o1)c1ccc(N2C(=O)CCC2=O)cc1,inactive,
O=C(O)/C=C\C(=O)Nc1ccc(N2CCN(c3ccc(Cl)c(Cl)c3)CC2)cc1,active: 25.1 µM,
COc1ccc(C(c2nnnn2Cc2ccc(F)cc2)N2CCN(c3ccc(OC)cc3)CC2)cc1 (configuration not stated),"inconclusive: 39.8 µM [inhibitor, single point]",
O=C1c2ccccc2C2=Nc3ccccc3SC(c3ccccc3F)C12 (configuration not stated),"inconclusive: 15.8 µM [inhibitor, partial curve]",
Cc1ccc(C(NC(=O)N2CCOCC2)C(Cl)Cl)cc1F (configuration not stated),inactive,
COC(=O)c1ccc(CSc2ccc3nnc(-c4ccccn4)n3n2)o1,"inconclusive: 31.6 µM [inhibitor, single point]",
Cc1ccc2nc(-c3ccc(NC(=O)CN4CCN(C(=O)c5ccco5)CC4)cc3)sc2c1,"inconclusive: 39.8 µM [inhibitor, single point]",
Cc1ccc(N2C(=O)C(CN3CCCC3)C2c2ccccc2)cc1 (configuration not stated),"inconclusive: 17.8 µM [inhibitor, partial curve]",
COC(=O)c1ccccc1NC(=O)N1CCN(c2ccc(OC)cc2)CC1,"inconclusive: 31.6 µM [inhibitor, single point]",
CN(C)c1ccc(N=Nc2cccc3ccoc23)cc1,active: 10 µM,
O=S(=O)(c1cccc(NC(=S)N2CCN(c3ccc(F)cc3)CC2)c1)C(F)F,"inconclusive: 31.6 µM [inhibitor, single point]",
